The list shows a part of the results. The full chains were built here from the parent and the listed change. Values near 0.05 are background.
B1: TEV protease; numbered along this chain (parent)
chain: MGESLFKGPRDYNPISSSICHLTNESDGHTTSLYGIGFGPFIITNKHLFRRNNGTLVVQSLHGVFKVKDTTTLQQHLVDGRDMIIIRMPKDFPPFPQKLKFREPQREERICLVTTNFQTKSMSSMVSDTSCTFPSGDGIFWKHWIQTKDGQCGSPLVSTRDGFIVGIHSASNFTNTNNYFTSVPKNFMELLTNQEAQQWVSGWRLNADSVLWGGHKVFMVKPEEPFQPVKEATQL

Variants of: B1
Test: raw area under fraction-flipped curve 0-4 h after induction (AUC4h, not background-subtracted), DNA-recorder readout of cleavage of the substrate (dimensionless); higher = more cleavage of the substrate by the protease variant
Details: temperature: 34 °C; time window: 0-4 h after rhamnose induction
Procedure: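 In vivo DNA recorder in E. coli TOP10(DE3) ΔrhaA at 34 °C. Each TEVp single-site mutant (parent TEVp 0) is paired with a single-site variant of the 7-mer TEVs (canonical ENLYFQ|S). The substrate sits between flexible linkers in a Bxb1-sfGFP-TEVs-SsrA fusion, so cleavage stabilises Bxb1 and speeds flipping of a recombination array, read by NGS. The value is the raw area under the fraction-flipped curve over 0-4 h after rhamnose induction (AUC4h), with ≥20 reads per time point. It is not background-subtracted; inactive controls average about 0.047.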
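Note: Bxb1 expression induced with 0.2% (w/v) L-rhamnose at OD600 near 0.5, cultures sampled hourly, flipped fraction per protease–substrate barcode pair counted by paired-end Illumina sequencing.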

Variant	area with substrate ENAYFQS	area with substrate ENCYFQS	area with substrate ENEYFQS	area with substrate ENIYFQS	area with substrate ENQYFQS	area with substrate ENRYFQS	area with substrate ENSYFQS	area with substrate ENTYFQS	area with substrate ENVYFQS	area with substrate ENWYFQS	area with substrate ENDYFQS	area with substrate ENFYFQS	area with substrate ENGYFQS	area with substrate ENHYFQS	area with substrate ENMYFQS	area with substrate ENNYFQS	area with substrate ENPYFQS	area with substrate ENYYFQS	area with substrate ENKYFQS
H62K	0.0966	0.0634	0.0691	0.0926	0.0625	0.0585	0.0595	0.0645	0.0757	0.0612									
K68R	0.0599	0.0646	0.0553	0.083	0.0577	0.0625		0.0654	0.0768	0.0401	0.0551	0.0756	0.0632	0.0759	0.0777	0.061	0.0611	0.066	
T44R	0.0524	0.0646	0.0461		0.0516	0.0479	0.0513	0.0465	0.0278	0.0325	0.0501	0.0478	0.0484		0.0434	0.0475	0.0312		0.0543
V64D	0.0687	0.074		0.125		0.061			0.0595	0.0362		0.0452							0.0547
V64M	0.0685	0.0643		0.0898	0.055	0.0499	0.0639	0.0525	0.0919		0.0606		0.0657		0.0789		0.0648		
V64G	0.0516	0.0566	0.0627	0.0904	0.0158	0.0696	0.0587		0.0668		0.0473	0.064	0.06			0.067	0.0555	0.0472	
V64I	0.0548	0.0618	0.0688		0.0674		0.0652	0.0764	0.08		0.0683	0.0709	0.052		0.0544	0.0648	0.059	0.0544	
V64H	0.0636	0.0753	0.0545		0.0613				0.0732										
V64A	0.0613	0.0643	0.0573			0.056	0.0581	0.066			0.0607						0.0581	0.053	0.0598
V64E	0.0732		0.0603	0.127	0.0603		0.0626			0.0454	0.0695	0.0639	0.0689	0.0557			0.0559		
H47G	0.0528	0.0658	0.0656	0.0741	0.0563	0.0575	0.0703	0.054	0.0532	0.0585	0.0686	0.061	0.0626	0.0594	0.0708	0.0506	0.06	0.0485	0.0376
G35R	0.0576				0.0501	0.0371		0.0424			0.0713					0.0387			
I42S	0.0427	0.0334	0.0473	0.0556	0.0542	0.0448	0.0472	0.0467	0.0474		0.0488	0.0449	0.0465	0.0397		0.0544	0.0457		
G63W	0.0565	0.0608	0.0552	0.108	0.0545	0.0582	0.0553	0.0593	0.0739		0.0788	0.0585	0.0567	0.0685					0.0592
D69G	0.0595		0.0535		0.0548	0.0444	0.0889			0	0.053	0.0682		0.0536	0.0699	0.0601			
D69P	0.0615	0.0612	0.064	0.0979	0.0583		0.0556	0.0456	0.067	0.0092	0.0549	0.0586	0.0646	0.0513	0.0687	0.0575	0.0684	0.0426	0.0522
F41D	0.043	0.0484	0.057		0.0456	0.0477	0.059	0.0577	0.0562	0.057	0.0377			0.0469		0.0551	0.0449		0.0516
N45Y	0.0592	0.0512	0.0635	0.0723	0.0583	0.0681	0.0648	0.0607	0.0411	0.0379	0.063	0.0469	0.0572	0.0532	0.0484	0.0638		0.0621	0.0668
N45L	0.0447		0.0616		0.0627	0.047	0.0618	0.0517	0.0569		0.0652			0.0723		0.0495	0.0252		0.0643
N45W	0.0606	0.061	0.0593	0.0744	0.0591	0.0541	0.0622	0.0542	0.0601	0.055	0.0621	0.0604	0.0798	0.0699	0.0657	0.0571			
P40W	0.05	0.0479	0.0739	0.0906	0.0577	0.0535	0.0576	0.0513	0.0769		0.0467	0.0551	0.0532	0.0213		0.0718	0.0512		0.0599
P40M	0.0717		0.0574		0.0545		0.0754		0.0719		0.0605		0.0648			0.0734	0.0399	0.0771	
T72K	0.0534	0.0626	0.0774	0.116	0.0579	0.043	0.0661		0.0839	0.0633	0.0623	0.0865	0.0564	0.037	0.0796	0.0557	0.0197	0.0616	0.0559
T72F	0.0752	0.0649	0.0564	0.112	0.0598	0.0588	0.0459	0.0537	0.058	0.0422	0.0651	0.0534	0.0553	0.0571					0.0609
T72Q	0.0605	0.0689			0.0756	0.0532			0.0883		0.0542		0.066	0.0537		0.0654			
T55V	0.0634	0.0616	0.0578	0.126	0.061	0.064	0.0668	0.0554	0.0791	0.0631	0.0584		0.0728		0.0763		0.0534	0.0565	0.0591

Source: the supplement of paper PMC12217912
